± gives the standard deviation of the averaged measurements. Over roughly 33,000 sequences, “E-score (dimensionless, -0.5 to 0.5)” has its median near -0.046; the highest 2% begin near 0.36. This is one part of the list.
Tested on: T1, SpTbr T-box DNA-binding domain (GST fusion)
T1 sequence: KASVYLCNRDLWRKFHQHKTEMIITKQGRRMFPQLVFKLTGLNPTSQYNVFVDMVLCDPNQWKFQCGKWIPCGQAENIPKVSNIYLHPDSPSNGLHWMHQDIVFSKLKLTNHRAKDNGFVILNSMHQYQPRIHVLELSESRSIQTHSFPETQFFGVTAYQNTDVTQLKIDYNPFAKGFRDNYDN
Assay: PBM E-score of 8-mer (E-score (dimensionless, -0.5 to 0.5)); Tbr is Tbrain of the sea star Patiria miniata (Pm) or the sea urchin Strongylocentrotus purpuratus (Sp); higher = stronger binding preference; most listed sequences are background and not binding sites
Details: the construct has about 5 more residues each side
Procedure, shortened: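 GST-fused Tbr T-box DNA-binding domains (the whole T-box plus about five flanking residues) were expressed in BL21 E. coli at 20 °C and purified by glutathione affinity chromatography. Universal Agilent oligonucleotide arrays were made double-stranded by primer extension, incubated with 200 nM protein in PBS (pH 7.5), then scanned and quantified. Every ungapped 8-mer was scored from probe intensities. The Universal PBM Analysis Suite gave each word an enrichment E-score, averaged over duplicate arrays.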

Point of comparison: GAGCACTA, “PBM E-score of 8-mer” value -0.0759 ± 0.012. Against it:
- ATCCAGTA — higher, 0.0699 ± 0.044
- AAGTCAAA — higher, -0.0558 ± 0.0054
- AAGCACGG — lower, -0.189 ± 0.076
- TGAGGACA — higher, 0.153 ± 0.0036
- GCTCGCAC — higher, 0.4252 ± 0.0014
- CGGCCGGA — lower, -0.209 ± 0.031
- TCTAACCA — within error, -0.0741 ± 0.054
- CCTACAGC — lower, -0.252 ± 0.035
- AAACATTA — lower, -0.209 ± 0.02
- CCCACAGG — higher, 0.158 ± 0.05
- CCGCTTAG — lower, -0.178 ± 0.067
- AGCGCGGA — higher, 0.106 ± 0.044
- CTTTGCCC — lower, -0.138 ± 0.021
- ACGCACTA — within error, -0.0875 ± 0.03
- CCCCTGAA — lower, -0.127 ± 0.03
- ATGTATGG — within error, -0.196 ± 0.14
- AGACCCCC — lower, -0.302 ± 0.007
- ATCTATTA — within error, -0.115 ± 0.088
- CATCCAAG — higher, 0.00205 ± 0.047
- GCTAGTTA — higher, 0.0926 ± 0.023
- CCTTCAAG — lower, -0.246 ± 0.043
- AGCACGAT — higher, 0.131 ± 0.03
- AAGGGTAG — within error, -0.0117 ± 0.11
- GCAGAATA — lower, -0.11507 ± 1.4e-05
- CAACTCAC — higher, 0.158 ± 0.0036
- ACGAGCCC — within error, -0.125 ± 0.04
- ATTCTATG — lower, -0.165 ± 0.047
- AGGATATG — lower, -0.272 ± 0.039
- ATACCGAA — within error, -0.114 ± 0.04
- TGAACAAA — higher, 0.0874 ± 0.0066
- CAGTCTGG — lower, -0.196 ± 0.021
- ATACGGGC — lower, -0.196 ± 0.049
- ATGTTCAA — within error, -0.0744 ± 0.011
- CGTGGTTA — higher, 0.02 ± 0.011
- CCGCCTTA — within error, -0.152 ± 0.076
- CAGGTTGG — higher, 0.108 ± 0.044
- ACAATGCA — lower, -0.107 ± 0.0079
- CCGCACGG — within error, -0.0976 ± 0.031
- CGAAAGCC — higher, 0.0161 ± 0.077
- AGTACTAA — lower, -0.159 ± 0.016
- AAGTTCCT — within error, -0.0764 ± 0.025
- AAGACACG — higher, 0.1363 ± 0.00044
- AGTCCGTC — within error, -0.0169 ± 0.054
- AGATTCCA — within error, -0.111 ± 0.055
- ACGATGCA — lower, -0.158 ± 0.0063
- ATAGTAGA — lower, -0.286 ± 0.061
- ACTGTTGA — higher, 0.107 ± 0.023
- AGTATCTG — lower, -0.212 ± 0.042
- TATATGAA — lower, -0.182 ± 0.0078
- GAGGTATA — within error, -0.0744 ± 0.025
- TATACGAA — lower, -0.269 ± 0.042
- GGCCAACC — within error, -0.0636 ± 0.015
- ACACTCCT — higher, 0.193 ± 0.021
- AATGATAA — within error, 0.0132 ± 0.1
- AATTCCAC — higher, 0.00147 ± 0.065
- TCTGGCCA — lower, -0.314 ± 0.058
- ATGGGGCG — within error, -0.0313 ± 0.038
- ATCGACGC — higher, 0.144 ± 0.042
- GCGATACC — higher, 0.155 ± 0.039
- AGAACTGA — lower, -0.235 ± 0.023
- CCTTAGCA — higher, 0.238 ± 0.036
- GGCCAGAC — lower, -0.263 ± 0.02
- GGATTAAA — higher, 0.0114 ± 0.049
- GCGGTTGA — within error, -0.0421 ± 0.044
- ATTTAGTA — lower, -0.22 ± 0.022
- AAACGTAT — within error, -0.0842 ± 0.022
- ACTGGCAA — higher, 0.0373 ± 0.019
- ACCGTAAA — higher, -0.042 ± 0.015
- GCGCAAAA — higher, 0.156 ± 0.013
- AAATGTGG — higher, 0.114 ± 0.01
- AAGTTCAT — lower, -0.134 ± 0.013
- CACGTTGC — higher, 0.101 ± 0.025
- AGGGAGTA — lower, -0.128 ± 0.028
- GGACCCCC — lower, -0.244 ± 0.056
- GAGCGCGC — within error, 0.0155 ± 0.12
- AGGCGGCC — lower, -0.318 ± 0.024
- AGGTCGAC — higher, -0.00677 ± 0.036
- ACTTGCAC — higher, 0.222 ± 0.0074
- AGACCACC — within error, -0.155 ± 0.09
- CCTTCAGC — lower, -0.114 ± 0.025
- CCGCGGAG — higher, -0.00051 ± 0.059
- CAGACATA — higher, 0.139 ± 0.028
- ACTAGCGA — higher, 0.0827 ± 0.051
- AAACGGCA — higher, 0.0106 ± 0.047
- ATACATCA — within error, -0.036 ± 0.032
- GTCTTCAA — within error, -0.051 ± 0.034
- GGGCTCAA — lower, -0.179 ± 0.026
- CAGAGGTA — lower, -0.274 ± 0.037
- GGATCCAC — within error, -0.00958 ± 0.069
- GATGCCGC — higher, 0.0365 ± 0.034
- CGAGCTCG — lower, -0.1585 ± 0.00081
- GGCGTAGA — within error, -0.0321 ± 0.11
- CTAACACC — higher, 0.464 ± 0.005
- AATTCGCA — higher, 0.321 ± 0.023
- GATCACGA — higher, 0.0322 ± 0.019
- CGCGTAGC — higher, 0.105 ± 0.024
- CCCTACGG — lower, -0.16 ± 0.042
- GACACTAC — higher, 0.278 ± 0.0049
- CTAGAATA — within error, -0.0858 ± 0.03
- ATACTCGC — higher, 0.0835 ± 0.039
- ATCGCAAA — higher, 0.0887 ± 0.0029
- AAGATGGA — lower, -0.272 ± 0.018
- AGCGTTGG — higher, 0.0877 ± 0.015
- GCTGCCCA — within error, -0.0939 ± 0.011
- GCTAATCA — higher, 0.0979 ± 0.045
- TATTGCCA — higher, 0.0232 ± 0.0082
- GCGCTGGA — within error, -0.0753 ± 0.081
- CGAAGTCA — higher, -0.0307 ± 0.014
- ATTCGCTC — within error, -0.165 ± 0.089
- ACAGCTCC — higher, 0.157 ± 0.0081
- GATGTTCC — lower, -0.148 ± 0.054
- TACAATCA — lower, -0.097 ± 0.0025
- AAATGTAG — within error, -0.136 ± 0.082
- ATTCGTAC — higher, -0.00244 ± 0.025
- AAGAGATA — higher, -0.0138 ± 0.011
- GATCGACA — higher, 0.279 ± 0.0041
- CCATTTGA — lower, -0.149 ± 0.051
- CGTGCTAA — higher, 0.349 ± 0.0041
- AATCTTGT — higher, -0.00257 ± 0.018
- GTCGCAGA — within error, -0.0708 ± 0.1
- ACCCTCCC — higher, -0.00241 ± 0.053
- TACTCCAA — within error, -0.0728 ± 0.031
- TCTTCGCA — higher, 0.307 ± 0.036
- CTTCAGTC — within error, -0.0612 ± 0.0078
- AACGAAGG — lower, -0.222 ± 0.041
- ACGTCAAC — higher, 0.0682 ± 0.016
- GATCAGGC — within error, -0.0443 ± 0.092
- ATTGAGTG — higher, 0.219 ± 0.02
- AGTCTAGA — lower, -0.216 ± 0.027
- TCCAAGGA — lower, -0.335 ± 0.04
- ATATCTGC — within error, -0.0996 ± 0.048
- ACGATAAA — higher, 0.0963 ± 0.028
- ACGTCCCT — within error, -0.124 ± 0.037
- AAAGTAGG — within error, -0.0927 ± 0.032
- AGAGGCTG — within error, -0.073 ± 0.087
- GTTGACTA — higher, 0.0965 ± 0.0034
- ACATGTAA — higher, 0.0603 ± 0.025
- GCCTTGGA — lower, -0.173 ± 0.012
- AACTCTCT — lower, -0.13 ± 0.018
- ACTGCCCG — lower, -0.12 ± 0.018
- CTCAAACA — within error, -0.0585 ± 0.013
- TAGGCCCA — lower, -0.289 ± 0.052
- ACGACAAC — higher, 0.2279 ± 0.0012
- ATGTGAAC — higher, 0.203 ± 0.012
- AGCGCTTA — higher, 0.176 ± 0.032
- TAAATTAA — lower, -0.163 ± 0.05
- ATTGCACC — higher, 0.274 ± 0.031
- CCTTGATA — within error, -0.0451 ± 0.022
- ATATTAAT — lower, -0.209 ± 0.078
- ATCTAGCA — higher, 0.111 ± 0.059
- GGCGCTTA — higher, 0.0135 ± 0.054
- CACCATTA — higher, 0.0463 ± 0.043
- ACTGCTTA — within error, -0.0489 ± 0.026
- CATCTCGG — lower, -0.188 ± 0.0026
- ATATGACG — higher, 0.0665 ± 0.016
- ACCACAGA — within error, -0.0948 ± 0.043
- AAATCGTC — higher, 0.151 ± 0.056
- AGAGCCAG — higher, 0.0237 ± 0.035
- AACCACCA — within error, -0.0862 ± 0.013
- AACGCTTC — higher, -0.0132 ± 0.036
- CTAAAGAA — within error, -0.102 ± 0.072
- ACCGCGGG — within error, -0.0515 ± 0.027
- AGCCGCAT — within error, -0.0458 ± 0.035
- CTCTAGAC — within error, -0.087 ± 0.0047
- ACATACTA — higher, 0.029 ± 0.033
- ATGAAAAG — within error, 0.0103 ± 0.09
- GCAATGGA — lower, -0.19 ± 0.053
- ACTACCGG — higher, 0.0217 ± 0.013
- AAACAAGT — within error, -0.0768 ± 0.066
- CTGGGGCC — lower, -0.254 ± 0.051
- AGCCCCGC — within error, -0.114 ± 0.062

From the supplement of paper PMC4166925
